Source: PubChem BioAssay AID463173 (ICCB-Longwood Screening Facility, Harvard Medical School, 2010)
Out of some 52,000 compounds screened, about 1,700 (3.3%) were called active. No stated cut-off is given here; in the data, active means survival mostly below about 52% (no sharp cut-off); inactive means mostly above about 56%. The list shows a part of the results.

Each compound was assayed on Wild type (assay: S. aureus survival, RN4220 and DeltatarO strains – OD600, teichoic acid synthesis inhibitors, primary screen (AID 463173)). Details: S. aureus RN4220 wild type/DeltatarO growth, OD600, 18 h, active compounds read low, screened at 18.75 µg/mL (by protocol).
For `O=C(NCC(c1cccnc1)N1CCc2ccccc2C1)C(=O)Nc1ccccc1F` (stereo not drawn), the survival was inactive: 95%.
`CC1Cc2cc(S(=O)(=O)CCC(=O)Nc3ccc(F)cc3)ccc2N1C(=O)C1CC1` (stereo not drawn) was tested, and the survival was inactive: 75%.
For `O=C(/C=C\c1ccc2c(c1)OCO2)NC1CC(=O)N(c2ccccc2)C1` (stereo not drawn), the survival was inactive: 159%.
In the case of `CSc1ccc(CNC(=O)Cn2c(-c3cccs3)cc3cc(F)ccc32)cc1`, the survival is reported as inactive: 70%.
In the case of `CCN1CCc2c(sc(NC(=O)c3ccc(S(=O)(=O)N(C)C4CCCCC4)cc3)c2C(N)=O)C1`, the survival is reported as inactive: 69%.
In the case of `N#CSC1CC(=O)N(c2ccc(F)cc2)C1=O` (stereo not drawn), the survival is reported as inactive: 108%.
`Cc1ccccc1-c1nnc(SCC(=O)N(C)c2ccccc2)o1` was tested, and the survival was inactive: 79%.
With `Clc1cccc(CNNc2nc(N3CCCCC3)nc(N3CCCCC3)n2)c1` the survival was inactive: 101%.
With `COc1cc(C(=O)N2CCNC(=O)C2CC(=O)Nc2ccc(C)c(C)c2)cc(OC)c1OC` (stereo not drawn) the survival was inactive: 66%.
With `CCN(CC)C(=O)C1CCN(Cc2cccc(OC)c2OC)CC1` the survival was inactive: 108%.
In the case of `CCCCNc1nc2c(-c3cccc(C)c3)nnn2c2ccccc12`, the survival is reported as inactive: 100%.
For `Cc1ccc(/C=C/c2onc(C)c2S(=O)(=O)N2CCC(C(=O)Nc3ccc(OC(F)(F)F)cc3)CC2)cc1`, the survival was inactive: 140%.
`Cc1cccc(OCC(=O)Nc2cccc(C(=O)OCc3cc(=O)n4nc(C(C)C)sc4n3)c2)c1` was tested, and the survival was inactive: 68%.
In the case of `Cc1ccc(S(=O)(=O)Nc2cc3c(C(=O)OCc4ccccc4)c(C)oc3c3ccccc23)c(C)c1`, the survival is reported as inactive: 73%.
`CCc1ccc2[nH]c(=O)c(CN(Cc3ccco3)C(=O)Nc3ccccc3)cc2c1` was tested, and the survival was inactive: 122%.
With `COc1ccc2c(c1)c1c(c(=O)n(-c3ccccc3C)c(=O)n1CC(N)=O)n2C` the survival was inactive: 82%.
`CCCN(CCC)C(=O)Cn1c(=O)n(CCCCCC(=O)Nc2ccccc2)c(=O)c2sccc21` was tested, and the survival was inactive: 98%.
With `Cc1nnc(C)n1/N=C/C=C/c1ccccc1` the survival was inactive: 97%.
In the case of `COC(=O)c1ccc(NC(=O)Cn2ccn3nc(-c4ccc(OC)cc4)cc3c2=O)cc1`, the survival is reported as inactive: 70%.
`Cc1ccc(CNC(=O)CCc2c(C)nc3c(-c4ccc(F)cc4)c(C)nn3c2C)cc1` was tested, and the survival was inactive: 82%.
For `O=C(/C=C/c1cccs1)NC1CCS(=O)(=O)C1` (stereo not drawn), the survival was inactive: 103%.
`CCc1sc(Nc2cccc(Cl)c2)nc1-c1cc2cccc(OC)c2oc1=O` was tested, and the survival was inactive: 72%.
With `COc1ccc(NC(=O)CN2C(=O)C(C)(C)c3cc(S(=O)(=O)N4CCCCC4)ccc32)cc1Cl` the survival was inactive: 60%.
In the case of `Cc1nn2c3c(cnc2c1-c1ccc(Cl)cc1)C(=O)CC(c1ccc(C(C)C)cc1)C3` (stereo not drawn), the survival is reported as inactive: 78%.
In the case of `Cc1c(C(=O)OCc2ccccc2)[nH]c2c1C(=O)CC(c1ccc(N(C)C)cc1)C2` (stereo not drawn), the survival is reported as inactive: 89%.
`Cc1ccc(S(=O)(=O)C(CNC(=O)COc2ccccc2)c2cccs2)cc1` (stereo not drawn) was tested, and the survival was inactive: 74%.
`COc1cccc(-n2c(SCC(=O)c3ccccc3)nc3c([nH]c4ccccc43)c2=O)c1` was tested, and the survival was inactive: 130%.
With `CCCn1c(COc2cccc(C)c2)nc2ccccc21` the survival was active: 25%.
`O=c1oc2cc(O)ccc2cc1-c1nc(-c2ccc(Cl)c(Cl)c2)cs1` was tested, and the survival was inactive: 95%.
In the case of `COC(=O)C1=C(C)NC(=O)NC1c1cn(-c2ccccc2)nc1-c1ccc(OC)c(Br)c1` (stereo not drawn), the survival is reported as inactive: 74%.
In the case of `O=C(COCc1cc(-c2cccs2)on1)N1CCN(c2ccc(F)cc2)CC1`, the survival is reported as inactive: 73%.
With `O=c1c(=O)n(-c2ccccc2)ccn1Cc1c(F)cccc1Cl` the survival was inactive: 77%.
With `CCOc1cccc(NC(=O)c2sc3nc(-c4ccc(F)cc4)ccc3c2N)c1` the survival was inactive: 103%.
For `CCSc1ncc(Cl)c(C(=O)N(Cc2ccccc2)c2ccc(OC)cc2)n1`, the survival was inactive: 110%.
With `COc1cc(CNCCSc2nnnn2C)ccc1OCc1ccc(C)cc1` the survival was inactive: 69%.
`Cc1cc(C)cc(N2CC(c3nnc(NC(=O)c4ccco4)s3)CC2=O)c1` (stereo not drawn) was tested, and the survival was inactive: 75%.
In the case of `C#CCn1c(O)c(N=NC(=O)c2cc(OC)c(OC)c(OC)c2)c2ccccc21`, the survival is reported as inactive: 114%.
`COc1cc(C(=O)Nc2ccc(-n3c(C)nc4ccccc4c3=O)cc2)cc(OC)c1OC` was tested, and the survival was inactive: 65%.
With `O=C(c1ccccc1)N1CCCC(c2nc3c(nnn3Cc3ccc(F)cc3F)c(=O)[nH]2)C1` (stereo not drawn) the survival was inactive: 104%.
For `Cc1nc2cccnc2n1C1CCN(C(=O)Nc2ccccc2)CC1`, the survival was inactive: 85%.
In the case of `CCCCn1c(=NC(=O)c2c(-c3c(F)cccc3Cl)noc2C)c(C(=O)OCC)cc2c(=O)n3ccccc3nc21`, the survival is reported as inactive: 136%.
In the case of `Cc1ccc(-c2noc(-c3ccc(NCc4cccnc4)c([N+](=O)[O-])c3)n2)cc1`, the survival is reported as inactive: 110%.
With `O=c1c2oc3ccccc3c2n(Cc2ccc(F)cc2)c(=O)n1Cc1ccco1` the survival was inactive: 87%.
For `O=C(NCc1cccc(F)c1)c1ccc(CN2CC(=O)N3CCCCC3C2=O)cc1` (stereo not drawn), the survival was inactive: 120%.
`CCOC(=O)C1CCN(C(c2ccc(OCC)cc2)c2c(O)cc(C)n(CCOC)c2=O)CC1` (stereo not drawn) was tested, and the survival was inactive: 93%.
`COc1ccc(CNS(=O)(=O)c2cc(Br)cc3c2N(C(C)=O)C(C)C3)cc1` (stereo not drawn) was tested, and the survival was inactive: 138%.
With `CCCCc1ccc(-n2nc3cc(Cl)c(NC(=O)c4ccc(OC)cc4)cc3n2)cc1` the survival was inactive: 66%.
For `CCOC(=O)c1ccc2nc(C)cc(Nc3ccc(OC(C)C)cc3)c2c1`, the survival was inactive: 134%.
In the case of `Cc1ccc(-n2cnc3cc(C(=O)NCc4ccc(F)cc4)ccc32)c(C)c1`, the survival is reported as inactive: 73%.
With `Cc1ccc(OC(C)C(=O)N2CCN(CCc3ccncc3)CC2)cc1C` (stereo not drawn) the survival was inactive: 88%.
`Clc1ccc2oc(-c3ccccc3)nc2c1` was tested, and the survival was inactive: 116%.
For `CCOC(=O)c1cccc(NS(=O)(=O)c2ccc3[nH]c4c(c3c2)CCCC4)c1`, the survival was inactive: 87%.
`CC(Sc1nc2c(c(=O)[nH]1)CCCC2)C(=O)Nc1cc(C(F)(F)F)ccc1Cl` (stereo not drawn) was tested, and the survival was inactive: 66%.
For `Cc1cccc(C(=O)NCCc2nc3ccccc3n2Cc2ccc(Cl)cc2)c1`, the survival was inactive: 64%.
`Cc1cc(NC(=O)CCC(=O)N(c2ccc(F)cc2)C2(C(=O)NC3CCCCC3)CCCC2)no1` was tested, and the survival was inactive: 100%.
With `CCC(CC)C(=O)Nc1ccccc1SCc1cc(=O)c2cccc(C)c2[nH]1` the survival was inactive: 72%.
`COc1ccc2c3c(cccc13)OCC2=O` was tested, and the survival was inactive: 109%.
With `CNC(=S)N(CCO)Cc1cc2cc3c(cc2[nH]c1=O)OCCO3` the survival was inactive: 110%.
With `CC(C)OC(=O)CSc1nnc(-c2ccc(O)cc2)n1-c1ccccc1` the survival was inactive: 116%.
For `COCCCNC(=O)C1CCC(Cn2c(=O)c3sccc3n(C)c2=O)CC1` (stereo not drawn), the survival was inactive: 132%.
`Cc1ccc(NC(=O)c2ccc(Cl)cc2Cl)c(C(=O)c2ccccc2)c1` was tested, and the survival was active: 1%.
`O=S(=O)(NCc1ccc(Cl)cc1)c1ccc2[nH]c3c(c2c1)CCCC3` was tested, and the survival was inactive: 119%.
In the case of `CCOc1ccc(-c2cc3c(=O)n(Cc4nc(-c5ccccc5OCC)oc4C)ccn3n2)cc1Cl`, the survival is reported as inactive: 146%.
In the case of `Cc1ccc(Cn2c(C)c(CNCC(C)c3ccccc3)c(C(=O)O)c2C)cc1` (stereo not drawn), the survival is reported as inactive: 105%.
With `CS(=O)(=O)c1ccc(-c2nn[nH]n2)cc1` the survival was inactive: 103%.
`Cc1ccc(NC(=O)CN2CCN(c3ccccc3F)CC2)cc1F` was tested, and the survival was inactive: 73%.
`COc1ccccc1C(=O)NCC(C)(C)CN=C1NS(=O)(=O)c2ccccc21` was tested, and the survival was inactive: 110%.
For `CCOC(=O)C1CCN(c2nc3c(S(=O)(=O)c4ccccc4)nnn3c3ccc(Cl)cc23)CC1`, the survival was inactive: 136%.
`CCCCc1c(C)nc2c(-c3ccc(Cl)cc3)c(C)[nH]n2c1=O` was tested, and the survival was active: -13%.
With `CC(C)C(=O)N1CCN(c2ccc(NC(=O)c3ccccc3)cc2)CC1` the survival was inactive: 95%.
In the case of `COc1cc(OC)cc(C(=O)Nc2ccc(-c3nc4cc(C(C)C)ccc4o3)cc2)c1`, the survival is reported as inactive: 62%.
With `Cc1ccc(C)c(N2CCN(S(=O)(=O)c3ccc(-c4coc(C)n4)cc3)CC2)c1` the survival was inactive: 68%.
`COc1ccc(C(=O)c2sc3nc(-c4ccc(C)cc4)cc(C(F)(F)F)c3c2N)cc1` was tested, and the survival was inactive: 122%.
For `CCCCN(CCCNC(=O)c1cc(Nc2ccc(OC)cc2)nc2ccccc12)Cc1ccccc1`, the survival was inactive: 81%.
`CCOC(=O)CNc1nc(Cl)nc(Nc2ccccc2)n1` was tested, and the survival was inactive: 121%.
For `COc1ccc(-n2cc(-c3ccc4c(c3)OCO4)n(CC(=O)Nc3cccc(C)c3C)c2=O)c(OC)c1`, the survival was inactive: 80%.
In the case of `CCOC(=O)C(CC)n1nc(C)c2c(C)n(-c3ccc(C)cc3)nc2c1=O` (stereo not drawn), the survival is reported as inactive: 119%.
`O=S(=O)(Nc1ccc(F)c(Cl)c1)c1ccc(Br)s1` was tested, and the survival was inactive: 40%.
For `Cc1ccc(S(=O)(=O)c2nc(S(=O)(=O)c3ccc(C)cc3)c(NCCCOC(C)C)s2)cc1`, the survival was inactive: 93%.
With `CCOC(=O)c1ccc(N2C(=O)c3n[nH]c(-c4cccs4)c3C2c2ccc(CC)cc2)cc1` (stereo not drawn) the survival was inactive: 91%.
In the case of `O=c1c(S(=O)(=O)c2ccccc2)cn(Cc2ccc(F)cc2)c2cc(N3CCOCC3)c(F)cc12`, the survival is reported as inactive: 102%.
With `Cc1cccc(N2CCN(C(=O)Cn3ncc4c5ccccc5n(C)c4c3=O)CC2C)c1` (stereo not drawn) the survival was inactive: 82%.
`Cc1ccccc1-n1nc(CO)c(C(=O)NCC(c2ccccc2)c2ccccc2)n1` was tested, and the survival was inactive: 84%.
With `COc1ccc(CCNC(=O)CCCn2c(=O)c3ccccc3n(Cc3ccccc3C#N)c2=O)cc1OC` the survival was inactive: 81%.
For `CC(=O)C1=C(c2ccc(Cl)c(Cl)c2)N(C(C)=O)n2c(nnc2-c2ccccc2)S1`, the survival was inactive: 83%.
`O=C(COCc1cc(-c2ccc(F)cc2)on1)Nc1cc(Cl)ccc1O` was tested, and the survival was inactive: 89%.
`Nc1nonc1C(=O)NCCNCc1ccccc1F` was tested, and the survival was inactive: 72%.
In the case of `COc1cccc2cc(-c3nc(Nc4cccc(C)c4C)sc3C)c(=O)oc12`, the survival is reported as inactive: 65%.
